From the supplement of paper PMC3334620
In all, about 33,000 sequences were measured (“E-score (-0.5 to 0.5)”: median about -0.043, highest 2% from about 0.37 on). The list shows a part of the results.

Target: T1, Upc2 (UniProt Q12151)
T1 sequence: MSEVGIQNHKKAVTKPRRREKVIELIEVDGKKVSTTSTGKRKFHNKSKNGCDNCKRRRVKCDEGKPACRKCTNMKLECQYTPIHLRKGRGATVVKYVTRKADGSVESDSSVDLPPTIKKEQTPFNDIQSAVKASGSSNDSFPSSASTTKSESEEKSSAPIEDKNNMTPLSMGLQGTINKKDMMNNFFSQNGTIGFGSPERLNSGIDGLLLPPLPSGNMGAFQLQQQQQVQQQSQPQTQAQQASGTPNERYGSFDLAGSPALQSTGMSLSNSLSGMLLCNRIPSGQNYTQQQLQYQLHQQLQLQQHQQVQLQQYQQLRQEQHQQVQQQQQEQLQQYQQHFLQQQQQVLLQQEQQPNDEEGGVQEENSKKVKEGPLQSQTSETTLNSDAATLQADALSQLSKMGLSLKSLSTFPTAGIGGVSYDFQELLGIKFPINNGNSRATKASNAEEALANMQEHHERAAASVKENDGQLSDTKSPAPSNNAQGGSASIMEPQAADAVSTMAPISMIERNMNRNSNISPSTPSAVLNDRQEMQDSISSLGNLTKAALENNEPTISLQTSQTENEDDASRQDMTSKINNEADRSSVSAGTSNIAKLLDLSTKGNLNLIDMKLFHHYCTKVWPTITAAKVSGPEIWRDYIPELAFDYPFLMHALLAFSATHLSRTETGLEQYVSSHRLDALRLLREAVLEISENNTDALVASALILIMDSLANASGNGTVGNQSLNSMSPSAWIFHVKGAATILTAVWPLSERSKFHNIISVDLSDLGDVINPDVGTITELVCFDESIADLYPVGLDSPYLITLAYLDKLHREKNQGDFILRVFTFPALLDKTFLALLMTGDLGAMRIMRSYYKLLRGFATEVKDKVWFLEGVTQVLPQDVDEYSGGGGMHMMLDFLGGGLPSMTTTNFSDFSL
Test: PBM E-score (8-mer binding enrichment) (E-score (-0.5 to 0.5)); higher = stronger / more preferred TF binding; most listed sequences are background and not binding sites
Conditions: protein concentration: 200 nM; construct: GST-full length
Protocol: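 Universal 'all 10-mer' protein binding microarrays (Agilent AMADID 015681) probed with GST-tagged S. cerevisiae TFs (full-length or DBD) made by in vitro transcription/translation (PURExpress), about 100-200 nM. Bound TF was detected with fluorescent anti-GST. Each ungapped 8-mer (which stands for itself and its reverse complement) is scored by the PBM enrichment score (E-score), a modified Wilcoxon-Mann-Whitney statistic from -0.5 to +0.5, computed with the Universal PBM Analysis Suite. Scale: above 0.35 generally sequence-specific binding.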

Sequence | PBM E-score
CACTAGTC | -0.267
CCCACGGG | -0.203
ACCAGTGC | -0.0356
AAGTGAGT | -0.195
CGGTAAGA | 0.0772
TAAGTATA | 0.219
ATAGACCA | 0.0797
TCCCCAGA | -0.22
ATCACCGA | -0.0665
GCGAGTAA | 0.0944
CATTGCGC | -0.113
GGCACCAC | -0.158
AATTCCCT | -0.147
AGGGCAGA | -0.387
ACCCTGGA | -0.0506
TCTACCAA | -0.13
ATCGAGCG | 0.147
CCCTGTCA | -0.229
GGTTGTTA | 0.101
CGAACCAG | 0.123
AATGCAAT | -0.103
AATCGGAT | 0.235

Sequence | PBM E-score
CCAGTCGA | -0.00559
GGGAACGA | 0.466
AGTCTTCG | 0.0756
GATCTACA | -0.172
ACAGACCT | 0.0499
ACGGTTGA | 0.133
AGTACCCG | 0.135
AAAATTCA | 0.105
CAAAGGTC | -0.212
CATCAAAC | 0.0608
GGGTTGGA | -0.107
CAGTGGGA | -0.121
AGTAAGAT | -0.0269
AACTCTCA | -0.0535
CTCCTGGC | -0.201
GACTGGAA | -0.0501
CCCACAAA | -0.0777
CTTACGGA | 0.104
CGGAGAAG | -0.249
AAATAGTG | -0.0513
CTCTAGCC | -0.122
ATCCAGGC | -0.276

Sequence | PBM E-score
GGAAGCCC | -0.0929
CGCGTTGA | 0.0434
CCGAAGAC | 0.0104
CGATATAC | 0.308
GGTCCCTA | -0.167
ACCGGAGA | -0.0818
GCCCTCAA | -0.144
CTGTCGTA | 0.447
CTCGCCGC | -0.109
CGTAGAGA | 0.274
AACCCGAG | 0.169
CACTGCGA | 0.0515
ACGTGCTA | 0.207
CTTCTCAA | -0.0755
GTAATGAC | 0.109
GTTTTACA | -0.0312
CTCTATTC | 0.052
ATCCACGC | -0.113
GCATCGGC | -0.141
GGCGGAGA | -0.105
GTCTAAGA | -0.0199
GTAGGTTA | 0.0545

Sequence | PBM E-score
CTGGGTTC | 0.0149
AGGAGACA | -0.0517
GTAAGAGA | 0.169
ACCTTTAT | -0.172
GCGTACCC | 0.244
CAATTCGC | 0.11
ACGCATCA | 0.0527
CAGTTGAA | -0.171
ACTGTAAC | 0.0684
AAGTAGCG | -0.116
CGGTCAAG | 0.012
GGCCCCGA | -0.113
GAACCAGA | -0.125
AGATAGAG | -0.0701
CAAGTTCC | -0.101
TGTTTGAA | -0.0139
AGAATTCG | -0.0112
GGGGGTCA | -0.234
ACGTGGTG | 0.0484
AGTTTTAC | 0.228
